# Screen size: about 310,000 compounds; about 14,000 (4.5%) showed an effect of 50% or more. The effect is printed as a negative number. The list shows a part of the results.
# Target: human ether-à-go-go-related gene (hERG) potassium channel (human, UniProt Q12809)
# Test: primary screen, population patch clamp on CHO cells stably expressing hERG
# 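Further: peak tail current of the secondary pulse compared with the same well before compound.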
# human ether-à-go-go-related gene (hERG) potassium channel, sequence (Q12809 whole entry, looked up): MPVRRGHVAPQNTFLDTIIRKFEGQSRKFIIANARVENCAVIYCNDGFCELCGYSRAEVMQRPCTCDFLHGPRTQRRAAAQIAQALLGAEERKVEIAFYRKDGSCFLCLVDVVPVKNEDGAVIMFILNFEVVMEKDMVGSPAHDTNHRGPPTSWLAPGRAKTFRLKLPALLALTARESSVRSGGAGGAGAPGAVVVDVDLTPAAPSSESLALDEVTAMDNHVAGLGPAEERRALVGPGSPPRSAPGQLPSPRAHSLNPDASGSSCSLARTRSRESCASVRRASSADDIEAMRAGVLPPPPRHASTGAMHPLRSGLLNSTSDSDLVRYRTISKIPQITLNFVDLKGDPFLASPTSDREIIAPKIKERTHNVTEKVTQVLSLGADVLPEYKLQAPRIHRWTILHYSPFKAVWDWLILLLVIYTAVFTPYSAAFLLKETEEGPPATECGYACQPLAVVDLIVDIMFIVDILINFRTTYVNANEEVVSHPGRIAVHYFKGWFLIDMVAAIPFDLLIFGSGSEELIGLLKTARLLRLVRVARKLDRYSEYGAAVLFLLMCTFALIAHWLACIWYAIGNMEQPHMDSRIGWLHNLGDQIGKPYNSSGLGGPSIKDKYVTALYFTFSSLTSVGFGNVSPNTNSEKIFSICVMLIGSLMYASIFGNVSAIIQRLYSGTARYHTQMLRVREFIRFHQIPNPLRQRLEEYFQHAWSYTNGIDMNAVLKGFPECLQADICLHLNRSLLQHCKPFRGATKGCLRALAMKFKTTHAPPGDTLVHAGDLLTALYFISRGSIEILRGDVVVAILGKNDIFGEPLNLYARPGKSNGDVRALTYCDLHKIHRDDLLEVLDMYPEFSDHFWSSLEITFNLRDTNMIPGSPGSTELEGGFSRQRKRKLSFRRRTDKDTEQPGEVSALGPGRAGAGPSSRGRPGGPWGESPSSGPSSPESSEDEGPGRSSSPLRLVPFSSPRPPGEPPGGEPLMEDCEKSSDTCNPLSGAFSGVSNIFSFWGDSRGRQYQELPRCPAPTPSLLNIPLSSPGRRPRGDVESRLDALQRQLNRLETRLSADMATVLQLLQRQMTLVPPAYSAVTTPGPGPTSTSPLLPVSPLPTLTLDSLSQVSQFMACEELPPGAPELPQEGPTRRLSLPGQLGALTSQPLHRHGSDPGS
row,SMILES,"hERG current change (%, negative = inhibition) at 10uM [%]"
1,c1ccc(Oc2ccc(-c3ccnc4nc(N5CCOCC5)nn34)cc2)cc1,4.87
2,C=C(C)c1cccc(C(C)(C)NC(=O)Nc2ccc(C(C)=O)cc2)c1,13.5
3,CN(C)S(=O)(=O)c1ccc(NC(=S)NC(=O)C2CCC2)cc1,10.3
4,COc1ccc(NC2CCCN(C(=O)CCc3ccncc3)C2)cc1OC (stereo not drawn),9.17
5,O=C(Nc1cc(S(=O)(=O)N2CCOCC2)ccc1OCC(F)(F)F)C1=COCCO1,-42.8
6,COc1cc(/C=N/n2cnn(Cc3ccccc3Cl)c2=S)cc(OC)c1OC,13.2
7,O=C(COc1ccccc1)OCC(=O)N1CCCc2ccccc21,6.37
8,CCCc1ccc(S(=O)(=O)N/N=C(/C)c2ccc3c(c2)OCO3)cc1,3.44
9,COc1ccc(-n2c(=O)cc(N3CCCCCC3)[nH]c2=O)cc1,7.04
10,CN(CC(=O)Nc1ccc(F)c(F)c1F)C(=O)c1ccc(-n2cncn2)cc1,-63.8
11,S=c1[nH]nc(C2CCCCC2)n1/N=C/c1ccccn1,25.8
12,CCCCCCSc1ccc([C@@H]2[C@@H]3C(=O)N(CC)C(=O)[C@@H]3[C@]3(C(=O)OC)CCCCN23)cc1OC.O=C(O)C(F)(F)F,4.94
13,CCOC(=O)C1=NNC2(c3ccccc3)C(=O)N(c3cccc(Br)c3)C(=O)C12 (stereo not drawn),-7.85
14,NS(=O)(=O)c1cccc(NC(=O)c2ccc3nc[nH]c3c2)c1,16.8
15,O=c1c2ccccc2n2nnnc2n1-c1ccccc1,3.72
16,CN(C)c1ccc(C(=O)OCC(=O)N2CCCC2)cc1,21.6
17,O=C(Nc1ccccc1C(=O)Nc1ccccn1)c1cc(F)c(F)cc1Cl,-15.5
18,COCCNc1c2c(nc3c(-c4ccccc4)c(C)nn13)CCC2,2.2
19,Cc1ccc(-n2c(C)nnc2SCC(=O)N2CCc3ccccc3C2)cc1C,-21.9
20,O=C(NCc1ccco1)c1ccc([N+](=O)[O-])cc1Cl,-3.96
21,CN(C)c1ccc(CNC2C3CC4CC(C3)CC2C4)cc1.Cl (stereo not drawn),-12.4
22,COc1ccccc1N1CCN(S(=O)(=O)CCNC(=O)c2ccc(OC(C)C)cc2)CC1,1.22

row,SMILES,"hERG current change (%, negative = inhibition) at 10uM [%]"
1,CC(C)(C)[C@]1(O)CCN2C[C@H]3c4ccccc4CCc4cccc(c43)[C@@H]2C1.Cl,-78.3
2,CN(CC(=O)Nc1ccc(C(N)=O)cc1)CC(=O)Nc1ccccc1Br,11
3,Cc1cccc(Oc2ncnc(N)c2[N+](=O)[O-])c1C,7.43
4,COCCN(C(=O)CNC(=O)c1ccco1)C(C(=O)NC1CCCC1)c1ccc(OC)cc1 (stereo not drawn),-10
5,COCCNC(=O)c1sc2ncn(CC(=O)N3CCCCC3)c(=O)c2c1C,-0.961
6,Cc1ccc(S(=O)(=O)Nc2ccc(C(=O)NCCCN3CCOCC3)cc2)cc1[N+](=O)[O-],6.23
7,Cc1ccc(OC(C)C(=O)Nc2ccncc2)cc1 (stereo not drawn),4.89
8,O=C(N1CCCCC1)N1CCN(c2ccc(Cl)cc2)CC1,-21.9
9,CCCCc1nc2ccccc2[nH]1,14.2
10,CCC(C)(C)C1CCc2[nH]nc(C(=O)NCCN3CCOCC3)c2C1 (stereo not drawn),-1.47
11,Nc1cc2c(cc1C(=O)c1cccc(Br)c1)OCCO2,-17.6
12,CCOc1ccc(N2C(=O)CSC23CCCCC3)cc1,-3.56
13,O=C(Nc1cc(-c2ccccc2)[nH]n1)c1ccccc1F,6.54
14,Cc1cc(C)cc(NC(=S)N2CCN(c3ncc(C(F)(F)F)cc3Cl)CC2)c1,3.28
15,CC1CCC(C(C)C)C(OC(=O)CSc2nnc(N)s2)C1 (stereo not drawn),3.01
16,CCc1ccccc1NC(=O)CN1CCN(C(=O)C2CCN(C(=O)/C=C/c3ccccc3)CC2)CC1,-72.9
17,COc1ccc(C)cc1S(=O)(=O)N(C)CC(=O)NCc1ccco1,7.99
18,Cc1ccc(S(=O)(=O)c2c(C)cc(C)nc2N2CCCC2)cc1,-34.3
19,Cc1ccc(NC(=O)c2cc(S(=O)(=O)N3CCCCC3)ccc2N2CCOCC2)cc1F,-13.9
20,CCCOc1ccc(N2C(=O)CC(S/C(N)=N/N=C(\C)c3cccs3)C2=O)cc1 (stereo not drawn),2.55
21,CC(=O)Oc1ccc(/C(C)=N\N2CCN(Cc3ccc(Cl)cc3)CC2)cc1,-36.8
22,CCN1CCCC1CNCc1cc(OC)c(OC)c(OC)c1.Cl (stereo not drawn),1.63

row,SMILES,"hERG current change (%, negative = inhibition) at 10uM [%]"
1,COc1ccccc1C(=O)c1cc2ccc(O)cc2oc1=O,15.1
2,CN(C)CCSc1nc(-c2ccccc2)nc2c1CCCC2,-51.3
3,Cc1c(Cl)c([N+](=O)[O-])nn1CCCC(=O)Nc1ccc(Cl)cc1Cl,-45.1
4,N#Cc1c(NC(=O)CSc2nc(-c3ccco3)cc(C(F)(F)F)n2)sc2c1CCCC2,12.3
5,O=C1CCCN1CCCNS(=O)(=O)c1ccc(Cl)c(C(=O)N2CCOCC2)c1,17
6,CC1(C)Cc2c(c(-c3ccco3)nc3sc4c(NCCO)ncnc4c23)CO1,14.8
7,O=C(COc1coc(CN2CCc3ccccc3C2)cc1=O)N1CCOCC1,5.77
8,Cc1cc2c(cc1S(=O)(=O)N(C)Cc1ccccc1)OCC(=O)N2,-6.54
9,COc1cc(NC(=O)COc2cc(C)cc3oc(=O)c(C)c(C)c23)cc(OC)c1OC,31.5
10,C/C(CC(=O)Nc1ccccn1)=N\NC(=O)c1ccncc1,21.1
11,CCn1c(=O)cc(SCC(=O)N2CCC3(CC2)OCCO3)c2ccccc21,8.73
12,COc1ccc(NC(=O)CSc2ccc3nnc(-c4cccnc4)n3n2)cc1,-50.4
13,C[C@@H]1NC(=O)N[C@@H]1CCCCCC(=O)O,14.6
14,O=C1C(=O)N(CCCn2ccnc2)C(c2ccc([N+](=O)[O-])cc2)/C1=C(\O)c1ccc2c(c1)OCCO2 (stereo not drawn),15.9
15,COc1ccc(CCC(=O)NCCc2nc3ccccc3[nH]2)cc1,-8.48
16,CCOC(=O)[C@H]1[C@H]2COc3cc(OC)ccc3[C@@H]2N2C(=O)N(c3ccc(Cl)cc3)C(=O)[C@@]12C,-8.04
17,CCOCCn1c(CN2CCCC(C)C2)nc2c1c(=O)n(C)c(=O)n2C (stereo not drawn),11.7
18,COc1ccc(NC2CCCN(C(=O)CCN3Cc4ccccc4C3=O)C2)cc1 (stereo not drawn),-13.1
19,CCCC(=O)c1ccc(N2CCN(C(=O)c3cccs3)CC2)c(F)c1,-75.1
20,Cc1c(-c2ccccc2)nnn1-c1ccc(F)cc1F,-0.308
21,Cc1nn(-c2ccccc2)c(C)c1C(=O)OCC(=O)N(C)C1CCS(=O)(=O)C1 (stereo not drawn),2.5
22,CCCOc1ccc(C(=O)Nc2ccc(S(=O)(=O)N3CCN(C)CC3)cc2)cc1,18.6

row,SMILES,"hERG current change (%, negative = inhibition) at 10uM [%]"
1,O=C(CN1CCN(Cc2ccccc2)CC1)N/N=C/c1ccc(Br)s1,-60
2,Cc1ccc(C(=O)OC(C)CN2CCN(C)CC2)cc1.Cl (stereo not drawn),1.69
3,CC(C)CCNC(=O)CN(C(=O)CCC(=O)Nc1ccccn1)c1ccc2c(c1)OCO2,-13.2
4,COc1cc(C(=O)Nc2nnc(-c3sccc3C)s2)cc(OC)c1OC,4.78
5,COc1cccc(OC)c1C(=O)Nc1ccc([N+](=O)[O-])cn1,1.95
6,Cn1c2ccccc2c2nnc(SCc3nnc(-c4ccccc4)o3)nc21,-27.9
7,COC(C(=O)Nc1ccnn1C1CCN(Cc2cnn(C(C)C)c2)CC1)c1ccccc1 (stereo not drawn),-2.06
8,CCOc1ccccc1NC(=O)C(=O)/C=C(\O)c1cc(OC)ccc1OC,26.1
9,COc1ccc(C(=O)NC2CCc3ccccc32)cc1OC1CCN(C(C)C)CC1 (stereo not drawn),-17.6
10,O=C(c1cccn2c(=O)c3ccccc3nc12)N1CCN(Cc2ccc3c(c2)OCO3)CC1,-67.7
11,Cc1ccc(/C=N/NC(=O)CN2CCN(Cc3ccccc3)CC2)s1,-55.8
12,COc1ccc(-c2csc(N)n2)cc1,-6.71
13,Cc1nc(NC(=O)CSc2nnc3ccccn23)c(Cl)cc1Cl,-3.58
14,O=C(NCC1CCCO1)c1cnc(Cl)c(Cl)c1 (stereo not drawn),13.9
15,CC(C)OCCCNC(=O)CNC(=O)c1cccs1,4.99
16,Cc1ccccc1CC1(CO)CCCN(C(=O)c2ccc3ncccc3c2)C1 (stereo not drawn),-7.32
17,O=[N+]([O-])c1ccc(Cl)c(CN2CCN(c3ncccn3)CC2)c1,-5.2
18,NS(=O)(=O)c1ccc(NC(=O)COC(=O)CNC(=O)C23CC4CC(CC(C4)C2)C3)cc1,4.95
19,CCN1C(=O)CC(N2CCC(Nc3ccc(F)cc3)CC2)C1=O (stereo not drawn),2.76
20,NS(=O)(=O)c1ccc(NCc2ccccc2OCc2ccc(F)cc2)cc1,-17
21,Cc1cnc(C(=O)Nc2ccc(C)c(S(=O)(=O)N3CCCCC3)c2)cn1,5.03

# Reference: PMC4336329 (PLoS ONE, 2015)
